{"source": "the GPR68 mutational scans of Howard et al. (2025)", "parents": {"B1": {"name": "GPR68, Q15743 (parent)", "chain": "MGNITADNSSMSCTIDHTIHQTLAPVVYVTVLVVGFPANCLSLYFGYLQIKARNELGVYLCNLTVADLFYICSLPFWLQYVLQHDNWSHGDLSCQVCGILLYENIYISVGFLCCISVDRYLAVAHPFRFHQFRTLKAAVGVSVVIWAKELLTSIYFLMHEEVIEDENQHRVCFEHYPIQAWQRAINYYRFLVGFLFPICLLLASYQGILRAVRRSHGTQKSRKDQIQRLVLSTVVIFLACFLPYHVLLLVRSVWEASCDFAKGVFNAYHFSLLLTSFNCVADPVLYCFVSETTHRDLARLRGACLAFLTCSRTGRAREAYPLGAPEASGKSGAQGEEPELLTKLHPAFQTPNSPGSGGFPTGRLA"}}, "key": {"[1]": {"variants_of": "B1", "experiment": "cAMP reporter score (Enrich2 score, wild type = 0); higher = more signal; HEK293T, FACS bins"}, "[2]": {"variants_of": "B1", "experiment": "surface expression score (Enrich2 score, wild type = 0); higher = more signal; HEK293T, FACS bins"}}, "note": "The least precise scores are not listed. Two further conditions of the source, in which the scores hardly spread, are not listed. Names with del lack the residues named; names with ins carry added residues between the positions named. For some assays here: How much ogerin was present is not stated here.", "data": [{"variant": "MGNITADNSSMSCTIDHTIHQTLAPVVYVTVLVVGFPANCLSLYFGYLQIKARNELGVYLCNLTVADLFYICSLPFWLQYVLQHDNWSHGDLSCQVCGILLYENIYISVGFLCCISVDRYLAVAHPFRFHQDRTLKAAVGVSVVIWAKELLTSIYFLMHEEVIEDENQHRVCFEHYPIQAWQRAINYYRFLVGFLFPICLLLASYQGILRAVRRSHGTQKSRKDQIQRLVLSTVVIFLACFLPYHVLLLVRSVWEASCDFAKGVFNAYHFSLLLTSFNCVADPVLYCFVSETTHRDLARLRGACLAFLTCSRTGRAREAYPLGAPEASGKSGAQGEEPELLTKLHPAFQTPNSPGSGGFPTGRLA", "note": "[F132D]", "values": [{"measurement": "cAMP reporter score", "setting": "[1]; pH 5.5", "value": -1.24}, {"measurement": "cAMP reporter score", "setting": "[1]; pH 6", "value": -1.42}, {"measurement": "cAMP reporter score", "setting": "[1]; pH 6, modulator: ogerin", "value": -1.2}, {"measurement": "cAMP reporter score", "setting": "[1]; pH 6.5, modulator: ogerin", "value": -0.657}]}, {"variant": "MGNITADNSSMSCTIDHTIHQTLAPVVYVTVLVVGFPANCLSLYFGYLQIKARNELGVYLCNLTVADLFYICSLPFWLQYVLQHDNWSHGDLSCQVCGILLYENIYISVGFLCCISVDRYLAVAHPFRFHQGRTLKAAVGVSVVIWAKELLTSIYFLMHEEVIEDENQHRVCFEHYPIQAWQRAINYYRFLVGFLFPICLLLASYQGILRAVRRSHGTQKSRKDQIQRLVLSTVVIFLACFLPYHVLLLVRSVWEASCDFAKGVFNAYHFSLLLTSFNCVADPVLYCFVSETTHRDLARLRGACLAFLTCSRTGRAREAYPLGAPEASGKSGAQGEEPELLTKLHPAFQTPNSPGSGGFPTGRLA", "note": "[F132G]", "values": [{"measurement": "cAMP reporter score", "setting": "[1]; pH 5.5", "value": -0.152}, {"measurement": "cAMP reporter score", "setting": "[1]; pH 6, modulator: ogerin", "value": -1.43}, {"measurement": "cAMP reporter score", "setting": "[1]; pH 6.5, modulator: ogerin", "value": -0.048}]}, {"variant": "MGNITADNSSMSCTIDHTIHQTLAPVVYVTVLVVGFPANCLSLYFGYLQIKARNELGVYLCNLTVADLFYICSLPFWLQYVLQHDNWSHGDLSCQVCGILLYENIYISVGFLCCISVDRYLAVAHPFRFHQHRTLKAAVGVSVVIWAKELLTSIYFLMHEEVIEDENQHRVCFEHYPIQAWQRAINYYRFLVGFLFPICLLLASYQGILRAVRRSHGTQKSRKDQIQRLVLSTVVIFLACFLPYHVLLLVRSVWEASCDFAKGVFNAYHFSLLLTSFNCVADPVLYCFVSETTHRDLARLRGACLAFLTCSRTGRAREAYPLGAPEASGKSGAQGEEPELLTKLHPAFQTPNSPGSGGFPTGRLA", "note": "[F132H]", "values": [{"measurement": "cAMP reporter score", "setting": "[1]; pH 5.5", "value": -0.924}, {"measurement": "cAMP reporter score", "setting": "[1]; pH 6", "value": -1.51}, {"measurement": "cAMP reporter score", "setting": "[1]; pH 6, modulator: ogerin", "value": -1.55}, {"measurement": "cAMP reporter score", "setting": "[1]; pH 6.5, modulator: ogerin", "value": -1.3}, {"measurement": "surface expression score", "setting": "[2]", "value": -2.67}]}, {"variant": "MGNITADNSSMSCTIDHTIHQTLAPVVYVTVLVVGFPANCLSLYFGYLQIKARNELGVYLCNLTVADLFYICSLPFWLQYVLQHDNWSHGDLSCQVCGILLYENIYISVGFLCCISVDRYLAVAHPFRFHQIRTLKAAVGVSVVIWAKELLTSIYFLMHEEVIEDENQHRVCFEHYPIQAWQRAINYYRFLVGFLFPICLLLASYQGILRAVRRSHGTQKSRKDQIQRLVLSTVVIFLACFLPYHVLLLVRSVWEASCDFAKGVFNAYHFSLLLTSFNCVADPVLYCFVSETTHRDLARLRGACLAFLTCSRTGRAREAYPLGAPEASGKSGAQGEEPELLTKLHPAFQTPNSPGSGGFPTGRLA", "note": "[F132I]", "values": [{"measurement": "cAMP reporter score", "setting": "[1]; pH 5.5", "value": 0.831}, {"measurement": "cAMP reporter score", "setting": "[1]; pH 6", "value": 0.28}, {"measurement": "cAMP reporter score", "setting": "[1]; pH 6, modulator: ogerin", "value": 0.775}, {"measurement": "cAMP reporter score", "setting": "[1]; pH 6.5, modulator: ogerin", "value": 0.2}, {"measurement": "surface expression score", "setting": "[2]", "value": -0.119}]}]}
